# Results published in the supplement of paper PMC11417369.
# ± gives the standard deviation of the averaged measurements. Some of the results follow.
# Test system: PfAP2-I AP2 domain 3 (GST-tagged)
# Assay: gcPBM binding intensity (ln(normalized median fluorescence intensity)); higher = stronger DNA binding
# Procedure, shortened: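 For binding intensity, the highest Masliner-normalised natural-log median intensity across replicate spots of either probe orientation was taken. Protein bound to the array was stained with Alexa488 anti-GST antibody and scanned at 488 nm. The protein, GST-tagged P. falciparum DNA-binding domains from E. coli at about 25 μg on average, had been applied for 1 h to an Agilent 4 × 180k array of primer-extended double-stranded 36-bp intergenic genomic probes and negative controls.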
row,Sequence,gcPBM binding intensity (ln)
1,AGCATTTCTTTTACATGTACATAATATTTTTAATAA [XGTACX_site1968],8.35 ± 0.39
2,AAAAAAAAAAAAAAAAAAATAAAAAATAAATAAATA [CACACA_negctrl_site1498],8.885 ± 0.007
3,TATATATGTATGTATGCATGCCCTTTTTTAAAAAAA [TGCATGCA_site434],8.04 ± 0.71
4,AAGAAAAAACAAACATGTACACATAATTTAGTTTTT [XGTACX_site3121],7.79 ± 0.3
5,AATGTATTAAAATTACGTACATATGCACATTTTATA [XGTACX_site5046],8.45 ± 0.36
6,TACTCTTTCCAGAAGTGTACATAGAAATAATTACAT [XGTACX_site2668],7.73 ± 0.58
7,TTTTTTATTTTGTGCACACACATAAAAATATAAATA [CACACA_site6497],11.01 ± 0.042
8,TATAAATACATACATACACACATATATATATATATT [CACACA_site6116],7.75 ± 0.38
9,TCCTAAAAAAAAAAAAAAAATGAAAAAGGAAAAAAA [CACACA_negctrl_site1646],7.33 ± 0.67
10,TAAAAATAATATATTTGTACATATGTGTATACATAA [XGTACX_site741],7.62 ± 0.61
11,AAAAAAAAAAAAAAAAGTACTAAATGTAAAAGAATA [XGTACX_site2164],8.62 ± 0.52
12,CAAGCACAGAAACACACACACACACCGACACAGACA [CACACA_site4359],8.11 ± 0.24
13,CTACCTTTAATATATACACACACATAAAAAAAATAT [CACACA_site8548],8.05 ± 0.28
14,ATATATATATATAATAAACACACAAATAGATATAAC [CACACA_site9234],9.07 ± 0.38
15,TATATATATATATATACATGCATACATATACATACA [TGCATGCA_site897],9.38 ± 0.37
16,AGATAAGATATATACACACACATAAATACGTACAAA [CACACA_site6639],8.35 ± 0.16
17,ATTATATAGCTAAAAAAAATAAATTAAAAATATTAA [TGCATGCA_negctrl_site505],7.41 ± 0.46
18,ATATTTACAAGTAATAGTACAGTTAATTATATAAAA [XGTACX_site4856],7.7 ± 0.54
19,AATGTACAAATACGTACACACATATTTATATTTATA [CACACA_site6833],8.09 ± 0.3
20,AAGAATGTTATTAGTACACACAATTATTATAGAAAT [CACACA_site7714],7.96 ± 0.4
21,TAAAAATTGAAGCACACACACAAAAGAAATACAATA [CACACA_site1113],8.14 ± 0.41
22,TTTTTTTTTACTTGTTGTACTTTTTCAAGGTATTGT [XGTACX_site7778],7.92 ± 0.65
23,ATATAAAAAAATTGCACACATAAATAAATACAGATA [CACACA_site4806],8.47 ± 0.2

row,Sequence,gcPBM binding intensity (ln)
1,TAATGTATTATATTTTGTTTTCTTCCACCAAAAAAA [XGTACX_negctrl_site64],8.01 ± 0.47
2,AAAAAAAAAATTAAATGTACACACACCTTAAACAAT [XGTACX_site3848],7.91 ± 0.41
3,ATTTTCTTATATATATTTTGTATATATTTTGTACAT [CACACA_negctrl_site1496],7.89 ± 0.71
4,ACCCATATAATATATACACACATATATATATATATA [CACACA_site4731],9.39 ± 0.36
5,TTTATTTTTATTTAAAGTACATATCCATTTATTCCT [XGTACX_site1914],7.71 ± 0.22
6,TACTTGTTATTAACATGTACAAAAAAAAAAAAAATT [XGTACX_site1338],7.64 ± 0.45
7,AAACAATATTCTCAAGTGCAAAAAGAAAAAAGAAAT,10.3 ± 0.12
8,AATGTACCCACACCCACACACAAACAAATATATATA [CACACA_site2751],8.46 ± 0.4
9,ATAGGATGCATATGAGTGCATTCTGTGTTGTTATAA,9.57 ± 0.19
10,AGATTAAAATATATACGTACATATTATTAATTAATA [XGTACX_site3487],7.73 ± 0.21
11,TCACCATATAAACGTGCACACTACAAAAATATATAA [CACACA_site5413],11 ± 0.24
12,ATATAAATATTATAATGTACATATAATATATTTATT [XGTACX_site5212],7.52 ± 0.3
13,CTTTTATTTTATTTTAGTACGCAACATTCTCTATAT [XGTACX_site7279],8.08 ± 0.55
14,TATTTATTTAAAAATTGTACGTAGGATTATACACTT [XGTACX_site286],7.88 ± 0.55
15,TAAAATTTGTACATAGTGCAATTTTTTTTTTTTTTT,9.81 ± 0.099
16,ATCTCTGTATGTTAGACACACATATTTTAATATGTT [CACACA_site4244],7.64 ± 0.54
17,ATATATTGCACTTTTTGTACATAATGAAAAATTTTT [XGTACX_site8223],11.5 ± 1
18,ACCTTAATAAAAAAAAGTACAAACATGTTCAAATTG [XGTACX_site1556],8.12 ± 0.12
19,TACATATTGATATATACACACAAAAAAATAAATTCT [CACACA_site6198],7.61 ± 0.54
20,TTTTTTATAGTACATTACCAAAAAAAAAAAAAAAAA [GTGCAC_negctrl_site549],8.13 ± 0.57
21,AATTCGTACCTCATTTGTACATATATATATATATAT [XGTACX_site5513],9.42 ± 0.4
22,CATACACCCATACATACACACATACAGATATATATA [CACACA_site5123],8.17 ± 0.64
